# Assay results from a collection of fitness landscapes (doi:10.1016/j.celrep.2020.107928).
# In all, about 81,000 sequences were measured (“one-hybrid fitness for binding NBS DNA”: median about -0.1, highest 2% from about 0.36 on). The list shows a part of the results.
# B1: Caulobacter ParB omega fusion; a variant is named by its letters at X, in order, B8GW30 (parent)
# chain: MESVVVGEPGMSEGRRGLGRGLSALLGEVDAAPAQAPGEQLGGSREAPIEILQRNPDQPRRTFREEDLEDLSNSIREKGVLQPILVRPSPDTAGEYQIVAGERAWRAAQRAGLKTVPIMVRELDDLAVLEIGIIENVQRADLNVLEEALSYKVLMEKFERTQENIAQTIGKSXSHVANXMRLLXLPDEVQSYLVSGELTAXHARAIAAAADPVALAKQIIEGGLSVRETEALARKAPNLSAGKSKGGRPPRVKDTDTQALESDLSSVLGLDVSIDHRGSTGTLTITYATLEQLDDLCNRLTRGI
# Variants of: B1
# Assay: one-hybrid fitness for binding NBS DNA (the Noc-binding site; scaled: cognate 1, non-cognate 0); higher = stronger binding
# Settings: with NBS DNA site
# In short: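 Fitness is the rescaled log change in variant-to-wild-type read ratio, measured by Illumina sequencing of plasmids before and after bacterial one-hybrid selection. The scale puts cognate at 1 and non-cognate at 0. Selection of Caulobacter ParB libraries, four specificity codons randomised, took place in E. coli USO with a HIS3 reporter, site 19 bp from the promoter, over 48 hours at 37°C on M9-minus-histidine with 0.1 mM IPTG and 5 mM 3-AT.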
row,Variant,one-hybrid fitness for binding NBS DNA
1,KRGL,≤ 0.2
2,EKSN,≤ 0.2
3,WNTT,≤ 0.2
4,RVFI,≤ 0.2
5,KYTV,≤ 0.2
6,TTHP,≤ 0.2
7,MCGA,≤ 0.2
8,GTRF,≤ 0.2
9,QLNL,≤ 0.2
10,STVP,≤ 0.2
11,NLMV,≤ 0.2
12,RLNY,≤ 0.2
13,TRYS,≤ 0.2
14,KCLT,≤ 0.2
15,SGSK,≤ 0.2
16,QPHC,≤ 0.2
17,IRTI,≤ 0.2
18,MGTY,≤ 0.2
19,NVCS,≤ 0.2
20,WREM,≤ 0.2
21,PRNR,≤ 0.2
22,YLIR,≤ 0.2
23,TQKS,≤ 0.2
24,RTLV,≤ 0.2
25,ESIG,≤ 0.2
26,IDPC,≤ 0.2

row,Variant,one-hybrid fitness for binding NBS DNA
1,PRWY,≤ 0.2
2,RNDQ,≤ 0.2
3,PGFR,≤ 0.2
4,SHTD,≤ 0.2
5,LLMI,≤ 0.2
6,VQKS,≤ 0.2
7,AIAN,≤ 0.2
8,QLTM,≤ 0.2
9,APSE,≤ 0.2
10,RSTN,≤ 0.2
11,RLPC,≤ 0.2
12,QYLS,0.256
13,HQCC,≤ 0.2
14,TPML,≤ 0.2
15,LWDW,≤ 0.2
16,RYFM,≤ 0.2
17,LYIT,≤ 0.2
18,LSLN,≤ 0.2
19,YPNV,≤ 0.2
20,QFNF,≤ 0.2
21,NPIG,≤ 0.2
22,LRPT,≤ 0.2
23,HSCC,≤ 0.2
24,ISNA,≤ 0.2
25,LASV,≤ 0.2
26,SKMC,≤ 0.2

row,Variant,one-hybrid fitness for binding NBS DNA
1,KNAD,≤ 0.2
2,TAGT,≤ 0.2
3,VQKF,≤ 0.2
4,QGPY,≤ 0.2
5,SEWS,≤ 0.2
6,WRAA,≤ 0.2
7,PGFW,≤ 0.2
8,RGNN,≤ 0.2
9,LFYS,≤ 0.2
10,RQYL,≤ 0.2
11,NCPI,≤ 0.2
12,FSMD,≤ 0.2
13,TTKW,≤ 0.2
14,HHFF,≤ 0.2
15,DPAT,≤ 0.2
16,SMEA,≤ 0.2
17,KCGL,≤ 0.2
18,LYYI,≤ 0.2
19,KFNY,≤ 0.2
20,ICKM,≤ 0.2
21,RANM,≤ 0.2
22,PVDV,≤ 0.2
23,QQDW,≤ 0.2
24,LSNC,≤ 0.2
25,NCAC,≤ 0.2
26,DWSI,≤ 0.2

row,Variant,one-hybrid fitness for binding NBS DNA
1,SGAW,≤ 0.2
2,RCKS,0.612
3,RAVI,≤ 0.2
4,RTCG,≤ 0.2
5,DFIG,≤ 0.2
6,TAVQ,≤ 0.2
7,HRWN,≤ 0.2
8,TLMY,≤ 0.2
9,STGF,≤ 0.2
10,MTRY,≤ 0.2
11,TVLG,≤ 0.2
12,CSNH,≤ 0.2
13,MRES,≤ 0.2
14,LENT,≤ 0.2
15,RIKT,0.623
16,LRQV,≤ 0.2
17,EMHT,≤ 0.2
18,GMFT,≤ 0.2
19,CYLN,≤ 0.2
20,RHKS,0.57
21,ANVY,≤ 0.2
22,HTPC,≤ 0.2
23,NLDR,≤ 0.2
24,IFAT,≤ 0.2
25,RGHE,≤ 0.2
26,TMTN,≤ 0.2

row,Variant,one-hybrid fitness for binding NBS DNA
1,SKNR,≤ 0.2
2,DTST,≤ 0.2
3,KFVF,≤ 0.2
4,KANG,≤ 0.2
5,RPRT,≤ 0.2
6,QSWV,≤ 0.2
7,SHAC,≤ 0.2
8,IQQR,≤ 0.2
9,RARA,0.309
10,PDKT,≤ 0.2
11,VNKS,≤ 0.2
12,ADSF,≤ 0.2
13,ITNH,≤ 0.2
14,DQSR,≤ 0.2
15,TFGG,≤ 0.2
16,PYTM,≤ 0.2
17,YNQR,≤ 0.2
18,MRVS,≤ 0.2
19,HDSR,≤ 0.2
20,TYQG,≤ 0.2
21,RNVH,≤ 0.2
22,SWLR,≤ 0.2
23,KTKT,0.396
24,PVGG,≤ 0.2
25,LNKC,≤ 0.2
26,ATPF,≤ 0.2

row,Variant,one-hybrid fitness for binding NBS DNA
1,EMGG,≤ 0.2
2,EWTS,≤ 0.2
3,TVFT,≤ 0.2
4,DRGH,≤ 0.2
5,NIPW,≤ 0.2
6,QDDF,≤ 0.2
7,FGCG,≤ 0.2
8,QKNA,0.378
9,MYTG,≤ 0.2
10,HMIC,≤ 0.2
11,QNPL,≤ 0.2
12,RTHN,≤ 0.2
13,TVRV,≤ 0.2
14,ETGA,≤ 0.2
15,QCVD,≤ 0.2
16,GESG,≤ 0.2
17,TGTL,≤ 0.2
18,QCRQ,0.527
19,IRND,≤ 0.2
20,KAGA,≤ 0.2
21,MVET,≤ 0.2
22,LRNM,≤ 0.2
23,HSTL,≤ 0.2
